# Assay results published in patent publication US11420968B2 (priority 2018, dated 2022).
# Like-named read-outs stand apart in the source and are kept apart here.
# Key:
# RS4;11 cells = experiment: cells; conditions: Homo sapiens
# Molt-4 cells = experiment: cells; conditions: Homo sapiens, MOLT-4, read-out: Cellular activity (IC50, nM) Molt-4
# [1] = RS4-11, 48 h, read-out: Cellular activity (IC50, nM) RS4, 11
# [2] = RS4-11, 48 h, read-out: Cellular activity (IC50, nM) RS4;11
SMILES,IC50 (RS4;11 cells; [1]) [nM],IC50 (Molt-4 cells) [nM],also measured
"O=C(NS(=O)(=O)c1ccc(NCC2CCOCC2)c([N+](=O)[O-])c1)c1ccc(-c2ccc(N3CCCC3c3ccccc3)nc2)cc1Oc1cnc2[nH]ccc2c1 (stereo not shown) [Example E1, 2-((1H-pyrrolo[2,3-b]pyridin-5-yl)oxy)-N-((3-nitro-4-(((tetrahydro-2H-pyran-4-yl)methyl)amino)phenyl)sulfonyl)-4-(6-(2-phenylpyrrolidin-1-yl)pyridin-3-yl)benzamide]",1630,> 10000,
"CN1CCN(c2ccc(-c3ccc(C(=O)NS(=O)(=O)c4ccc(NCC5CCOCC5)c([N+](=O)[O-])c4)c(Oc4cnc5[nH]ccc5c4)c3)cc2)C(c2ccccc2C2CC2)C1 (stereo not shown) [Example A155, 3-((1H-pyrrolo[2,3-b]pyridin-5-yl)oxy)-4′-(2-(2-cyclopropylphenyl)-4-methylpiperazin-1-yl)-N-((3-nitro-4-(((tetrahydro-2H-pyran-4-yl)methyl)amino)phenyl)sulfonyl)-[1,1′-biphenyl]-4-carboxamide]",,> 10000,IC50 (RS4;11 cells; [2]): 94 nM
"O=C(NS(=O)(=O)c1ccc(NCC2CCOCC2)c([N+](=O)[O-])c1)c1ccc(C2CCC(N3CCCC3C=Cc3ccccc3)CC2)cc1Oc1cnc2[nH]ccc2c1 (stereo not shown) [Example D102, 2-((1H-pyrrolo[2,3-b]pyridin-5-yl)oxy)-N-((3-nitro-4-(((tetrahydro-2H-pyran-4-yl)methyl)amino)phenyl)sulfonyl)-4-(4-(2-styrylpyrrolidin-1-yl)cyclohexyl)benzamide]",1040,,
"CC(C)(N)C(=O)N1CCC(c2ccccc2[C@H]2CCCN2c2ccc(-c3ccc(C(=O)NS(=O)(=O)c4ccc(NC[C@H]5CC[C@](C)(O)CC5)c([N+](=O)[O-])c4)c(Oc4cnc5[nH]ccc5c4)c3)cc2)CC1 [Example G127, 3-((1H-pyrrolo[2,3-b]pyridin-5-yl)oxy)-4′-((R)-2-(2-(1-(2-amino-2-methylpropanoyl)piperidin-4-yl)phenyl)pyrrolidin-1-yl)-N-((4-((((1r,4r)-4-hydroxy-4-methylcyclohexyl)methyl)amino)-3-nitrophenyl)sulfonyl)-[1,1′-biphenyl]-4-carboxamide]",,> 10000,IC50 (RS4;11 cells; [2]): 60.3 nM
"O=C(NS(=O)(=O)c1ccc(OCC2CCC(O)CC2)c([N+](=O)[O-])c1)c1ccc(C2=CCC(N3CCCC3c3cccc(Cl)c3C3CC3)CC2)cc1Oc1cnc2[nH]ccc2c1 (stereo not shown) [Example G116, 3-((1H-pyrrolo[2,3-b]pyridin-5-yl)oxy)-4′-(2-(3-chloro-2-cyclopropylphenyl)pyrrolidin-1-yl)-N-((4-((4-hydroxycyclohexyl)methoxy)-3-nitrophenyl)sulfonyl)-2′,3′,4′,5′-tetrahydro-[1,1′-biphenyl]-4-carboxamide]",20,> 10000,
"O=C(NS(=O)(=O)c1ccc(NCC2CCOCC2)c([N+](=O)[O-])c1)c1ccc(-c2ccc(N3C(=O)COCC3c3ccccc3C3CC3)cc2)cc1Oc1cnc2[nH]ccc2c1 (stereo not shown) [Example A153, 3-((1H-pyrrolo[2,3-b]pyridin-5-yl)oxy)-4′-(3-(2-cyclopropylphenyl)-5-oxomorpholino)-N-((3-nitro-4-(((tetrahydro-2H-pyran-4-yl)methyl)amino)phenyl)sulfonyl)-[1,1′-biphenyl]-4-carboxamide]",,> 10000,IC50 (RS4;11 cells; [2]): 424 nM
"O=C(NS(=O)(=O)c1ccc(NCC2CCOCC2)c([N+](=O)[O-])c1)c1ccc(C2=CCC(N3CCCC3c3cccc(C4CC4)c3)CC2)cc1Oc1cnc2[nH]ccc2c1 (stereo not shown) [Example C4, 3-((1H-pyrrolo[2,3-b]pyridin-5-yl)oxy)-4′-(2-(3-cyclopropylphenyl)pyrrolidin-1-yl)-N-((3-nitro-4-(((tetrahydro-2H-pyran-4-yl)methyl)amino)phenyl)sulfonyl)-2′,3′,4′,5′-tetrahydro-[1,1′-biphenyl]-4-carboxamide]",112,,"IC50 (RS4;11 cells; RS4-11, read-out: Cellular activity (IC50, nM) RS4, 11): 112 nM"
"O=C(NS(=O)(=O)c1ccc(NCC2CCOCC2)c([N+](=O)[O-])c1)c1ccc(C2=CCC(N3CCCC3c3ccccc3Cc3ccccc3)CC2)cc1Oc1cnc2[nH]ccc2c1 (stereo not shown) [Example C16, 3-((1H-pyrrolo[2,3-b]pyridin-5-yl)oxy)-4′-(2-(2-benzylphenyl)pyrrolidin-1-yl)-N-((3-nitro-4-(((tetrahydro-2H-pyran-4-yl)methyl)amino)phenyl)sulfonyl)-2′,3′,4′,5′-tetrahydro-[1,1-biphenyl]-4-carboxamide]",435,,
"O=C(NS(=O)(=O)c1ccc(NCC2CCOCC2)c([N+](=O)[O-])c1)c1ccc(C2=CCC(N3CCCC3Cc3ccccc3C3CC3)CC2)cc1Oc1cnc2[nH]ccc2c1 (stereo not shown) [Example C118, 3-((1H-pyrrolo[2,3-b]pyridin-5-yl)oxy)-4′-(2-(2-cyclopropylbenzyl)pyrrolidin-1-yl)-N-((3-nitro-4-(((tetrahydro-2H-pyran-4-yl)methyl)amino)phenyl)sulfonyl)-2′,3′,4′,5′-tetrahydro-[1,1′-biphenyl]-4-carboxamide]",339,,
"O=C(NS(=O)(=O)c1ccc(NCC2CCOCC2)c([N+](=O)[O-])c1)c1ccc(-c2ccc(N3CCCCCC3c3ccccc3)cc2)cc1Oc1cnc2[nH]ccc2c1 (stereo not shown) [Example A15, 3-((1H-pyrrolo[2,3-b]pyridin-5-yl)oxy)-N-((3-nitro-4-(((tetrahydro-2H-pyran-4-yl)methyl)amino)phenyl)sulfonyl)-4′-(2-phenylazepan-1-yl)-[1,1′-biphenyl]-4-carboxamide]",200,,
"O=C(NS(=O)(=O)c1ccc(NCC2CCOCC2)c([N+](=O)[O-])c1)c1ccc(C2=CCC(N3Cc4ccccc4C3c3ccccc3C3CC3)CC2)cc1Oc1cnc2[nH]ccc2c1 (stereo not shown) [Example C86, 3-((1H-pyrrolo[2,3-b]pyridin-5-yl)oxy)-4′-(1-(2-cyclopropylphenyl)isoindolin-2-yl)-N-((3-nitro-4-(((tetrahydro-2H-pyran-4-yl)methyl)amino)phenyl)sulfonyl)-2′,3′,4′,5′-tetrahydro-[1,1′-biphenyl]-4-carboxamide]",748,,
"O=C(NS(=O)(=O)c1ccc(NCC2CCOCC2)c([N+](=O)[O-])c1)c1ccc(-c2ccc(C3CCCN3c3ccccc3[N+](=O)[O-])cc2)cc1Oc1cnc2[nH]ccc2c1 (stereo not shown) [Example A63, 3-((1H-pyrrolo[2,3-b]pyridin-5-yl)oxy)-N-((3-nitro-4-(((tetrahydro-2H-pyran-4-yl)methyl)amino)phenyl)sulfonyl)-4′-(1-(2-nitrophenyl)pyrrolidin-2-yl)-[1,1′-biphenyl]-4-carboxamide]",328,,
"CC1CCN(C2CC=C(c3ccc(C(=O)NS(=O)(=O)c4ccc(NCC5CCOCC5)c([N+](=O)[O-])c4)c(Oc4cnc5[nH]ccc5c4)c3)CC2)C1c1ccccc1C1CC1 (stereo not shown) [Example C141, 3-((1H-pyrrolo[2,3-b]pyridin-5-yl)oxy)-4′-(2-(2-cyclopropylphenyl)-3-methylpyrrolidin-1-yl)-N-((3-nitro-4-(((tetrahydro-2H-pyran-4-yl)methyl)amino)phenyl)sulfonyl)-2′,3′,4′,5′-tetrahydro-[1,1′-biphenyl]-4-carboxamide]",94,,
"O=C(NS(=O)(=O)c1ccc(NC[C@H]2COCCO2)c([N+](=O)[O-])c1)c1ccc(C2=CCC(N3CCC[C@H]3c3ccccc3C3CC3)CC2)cc1Oc1cnc2[nH]ccc2c1 (stereo partly drawn) [Example G8-S, N-((4-((((S)-1,4-dioxan-2-yl)methyl)amino)-3-nitrophenyl)sulfonyl)-3-((1H-pyrrolo[2,3-b]pyridin-5-yl)oxy)-4′-((S)-2-(2-cyclopropylphenyl)pyrrolidin-1-yl)-2′,3′,4′,5′-tetrahydro-[1,1′-biphenyl]-4-carboxamide]",,2460,
"CC1(O)CCC(CNc2ccc(S(=O)(=O)NC(=O)c3ccc(C4=CCC(N5CCCC5c5ccccc5C5CC5)CC4)cc3Oc3cnc4[nH]ccc4c3)cc2[N+](=O)[O-])CC1 (stereo not drawn) [Example G24b, (trans- or cis-)-3-((1H-pyrrolo[2,3-b]pyridin-5-yl)oxy)-4′-(2-(2 cyclopropylphenyl)pyrrolidin-1-yl)-N-((4-(((4-hydroxy-4-methylcyclohexyl)methyl)amino)-3-nitrophenyl)sulfonyl)-2′,3′,4′,5′-tetrahydro-[1,1′-biphenyl]-4-carboxamide]",,> 10000,
"O=C(NS(=O)(=O)c1ccc(NCC2CCOCC2)c([N+](=O)[O-])c1)c1ccc(-c2ccc(N3CCCC3c3ccccc3N3CCNCC3)cc2)cc1Oc1cnc2[nH]ccc2c1 (stereo not shown) [Example A120, 3-((1H-pyrrolo[2,3-b]pyridin-5-yl)oxy)-N-((3-nitro-4-(((tetrahydro-2H-pyran-4-yl)methyl)amino)phenyl)sulfonyl)-4′-(2-(2-(piperazin-1-yl)phenyl)pyrrolidin-1-yl)-[1,1′-biphenyl]-4-carboxamide]",,> 10000,
"O=C(NS(=O)(=O)c1ccc(NCC2CCOCC2)c([N+](=O)[O-])c1)c1ccc(C2=CCC(N3CCCC3C3CCCCC3)CC2)cc1Oc1cnc2[nH]ccc2c1 (stereo not shown) [Example C60, 3-((1H-pyrrolo[2,3-b]pyridin-5-yl)oxy)-4′-(2-cyclohexylpyrrolidin-1-yl)-N-((3-nitro-4-(((tetrahydro-2H-pyran-4-yl)methyl)amino)phenyl)sulfonyl)-2′,3′,4′,5′-tetrahydro-[1,1′-biphenyl]-4-carboxamide]",107,,
"CC(=O)N(C)CCN1CCC(c2ccccc2[C@H]2CCCN2c2ccc(-c3ccc(C(=O)NS(=O)(=O)c4ccc(NCC5CCOCC5)c([N+](=O)[O-])c4)c(Oc4cnc5[nH]ccc5c4)c3)cc2)CC1 [Example A105, (R)-3-((1H-pyrrolo[2,3-b]pyridin-5-yl)oxy)-4′-(2-(2-(1-(2-(N-methylacetamido)ethyl)piperidin-4-yl)phenyl)pyrrolidin-1-yl)-N-((3-nitro-4-(((tetrahydro-2H-pyran-4-yl)methyl)amino)phenyl)sulfonyl)-[1,1′-biphenyl]-4-carboxamide]",,4000,
"O=C(NS(=O)(=O)c1ccc(NCC2CCOCC2)c([N+](=O)[O-])c1)c1ccc(C2=CCC(N3CCCC3c3cc(F)ccc3C3CC3)CC2)cc1Oc1cnc2[nH]ccc2c1 (stereo not shown) [Example C54, 3-((1H-pyrrolo[2,3-b]pyridin-5-yl)oxy)-4′-(2-(2-cyclopropyl-5-fluorophenyl)pyrrolidin-1-yl)-N-((3-nitro-4-(((tetrahydro-2H-pyran-4-yl)methyl)amino)phenyl)sulfonyl)-2′,3′,4′,5′-tetrahydro-[1,1′-biphenyl]-4-carboxamide]",185,,
